Results reported in PubChem BioAssay AID1347417 (National Center for Advancing Translational Sciences (NCATS), 2020).
Out of some 120,000 compounds screened, about 5,300 (4.4%) were called active. Inconclusive results, whose numbers are uncertain, are shown with a selection of clear calls. The call rests on the fitted dose curve; in most records, active means well fitted inhibition curve with a large enough effect; inconclusive means small, poorly fitted or top-dose-only effect; inactive means no such curve, though single readings can be large or run the other way. Potencies of inconclusive entries are doubtful fits and often do not repeat.

assay: qHTS Primary assay for Inhibitors of Plasmodium falciparum Dd2 growth in vitro; further: nearly all actives have a fitted effect of over 65% in size;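 on activity, negative = inhibition: plate controls were DMSO vehicle for no effect and reference drug for full effect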; conditions: P. falciparum Dd2 growth, SYBR Green, 72 h; activity, negative = inhibition: at 28.9 µM (top of the series) unless noted; series mostly up to 28.9 µM
In short: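 Infected erythrocytes (Dd2, 0.3% parasitemia, 2.5% hematocrit final) are added to compound in RPMI-1640/Albumax II medium, grown 72 h at 37C in low oxygen, then lysed with saponin/Triton-X containing SYBR Green and read by fluorescence.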
Potency means the concentration at half of the fitted maximal effect; tags describe the fitted curve by direction and shape.

| Structure (SMILES) | Potency | activity, negative = inhibition | outcome |
| --- | --- | --- | --- |
| COc1ccc(-c2noc(-c3cccn3CC(=O)Nc3cc(C)ccc3C)n2)cc1F | inconclusive: 1.12 µM [inhibitor, full curve] | – | – |
| COc1ccc(CNC(=O)C2CCN(C(=O)c3cc4c(=O)[nH]c(C)cn4n3)CC2)cc1 | inconclusive: 0.794 µM [inhibitor, full curve, poor fit] | – | – |
| O=C(c1ccc(Cl)cc1)N1CC2(CCN(Cc3ccc(Cl)cc3)CC2)Cc2ccccc21 | active: 12.6 µM | – | – |
| N#Cc1ccc(CN2CCC(N3CCNC3=O)CC2)cc1 | – | inactive: 12.9% [at 44.1 µM] | – |
| Cc1sc2c(c1C)c(=O)n(Cc1ccccc1)c(=O)n2CC(=O)Nc1cccc(Cl)c1 | inconclusive: 11.2 µM [inhibitor, single point] | – | – |
| CCN1CCN(CCNC(=O)C23CCCC=C2N(C2CCCC2)C(=O)CC3)CC1 (stereo not drawn) | – | – | inactive |
| CCOc1ccc(CCNC(=O)c2sc3nc4n(c(=O)c3c2C)CCCC4)cc1 | inconclusive: 10 µM [inhibitor, single point] | – | – |
| CC(C)c1ccc(OCC(=O)Nc2cc(-c3nc4ncccc4o3)ccc2Cl)cc1 | – | inactive: -11.4% | – |
| O=S(=O)(c1cccc(C(F)(F)F)c1)N1CCCC(Cn2cnc3cccnc32)C1 (stereo not drawn) | – | inactive: -17.2% | – |
| NC(=O)C1CCN(c2cc(-c3noc([C@@H]4CCCN4Cc4ccncc4)n3)ccn2)CC1 | inconclusive: 2.24 µM [inhibitor, partial curve, poor fit] | – | – |
| COc1ccccc1Oc1ncccc1CNC(=O)c1ccc(CO)o1 | – | inactive: 0.135% | – |
| Cc1cccc(NC(=O)CN2C(=O)CCc3ccccc32)c1C | inconclusive: 10 µM [inhibitor, partial curve, poor fit] | – | – |
| N[C@H]1CN(S(=O)(=O)c2ccc(OC(F)F)cc2)C[C@@H]1C1CC1 | active: 5.62 µM | – | – |
| Cc1ccc(Cn2c(C3CCN(C(=O)c4cccc(C(F)(F)F)c4)CC3)n[nH]c2=O)cc1 | inconclusive: 11.2 µM [inhibitor, single point] | – | – |
| Cc1ccc(C2Cn3nnc(-c4noc(-c5ccccn5)n4)c3CO2)cc1 (stereo not drawn) | inconclusive: 0.355 µM [inhibitor, partial curve, poor fit] | – | – |
| COc1cc(CNCCSc2nnnn2C)ccc1OCc1c(F)cccc1Cl | inconclusive: 17.8 µM [inhibitor, single point] | – | – |
| COc1ccc(-c2cc(-c3cnc4[nH]ccc4c3)cn3cncc23)cn1 | active: 4.47 µM | – | – |
| O=c1ncn(Cc2ccccc2)c2ccc(-c3ccc(O)c(F)c3)nc12 | – | – | inactive [at 44.1 µM] |
| CCN(CC)Cc1cnc2c(C(=O)Nc3ccc(C)cc3Cl)cnn2c1 | – | inactive: -19.6% | – |
| CCN(C(=O)c1cc2c(Cl)nc3ccc(C)cc3c2s1)c1cc(OC)ccc1OC | active: 8.91 µM | – | – |
| CC1(c2ccccc2)CC(C)(C)N(C(=O)c2ccccc2Cl)c2ccccc21 (stereo not drawn) | inconclusive: 10 µM [inhibitor, single point] | – | – |
| COc1ccccc1C(=O)Nc1c(C(=O)Nc2ccc(C)cc2)oc2ccccc12 | inconclusive: 17.8 µM [inhibitor, single point] | – | – |
| O=C(NC1CCN(c2cc(-c3ccc(Cl)cc3)[nH]n2)C1)c1ccc2cc[nH]c2c1 (stereo not drawn) | – | – | inactive |

| Structure (SMILES) | Potency | activity, negative = inhibition | outcome |
| --- | --- | --- | --- |
| C[S+](=O)([O-])N1Cc2ccccc2CC2(CCCN(Cc3ccccc3)C2)C1 (stereo not drawn) | – | inactive: -12.2% | – |
| CC(C)(O)C#Cc1ccc(C(=O)N2CCOCC2CC(=O)O)o1 (stereo not drawn) | – | inactive: 15.3% | – |
| O=C(N1CCCC1c1nc(CCOCC2CC2)no1)C1(c2ccccc2)CC1 (stereo not drawn) | inconclusive: 10 µM [inhibitor, single point] | – | – |
| CC(=O)N1CC2(CCCCN2Cc2cccc(C(N)=O)c2)Cc2ccccc21 (stereo not drawn) | – | inconclusive: -30.7% [inhibitor] | – |
| CCCNc1ccc2nnc(CC)n2n1 | inconclusive: 3.98 µM [inhibitor, single point] | – | – |
| O=C(NC1CCCN(c2cc(-c3ccccc3)[nH]n2)C1)c1ccccc1F (stereo not drawn) | – | – | inactive |
| Cc1cc2cc(-c3c(C)noc3C)nc(-c3ccc([S+](C)(=O)[O-])cc3)c2o1 | inconclusive: 11.2 µM [inhibitor, partial curve, poor fit] | – | – |
| Cc1cn2nc(C(=O)Nc3ccc(C(=O)NCCc4cccs4)cc3)cc2c(=O)[nH]1 | inconclusive: 1.12 µM [inhibitor, partial curve, poor fit] | – | – |
| COc1ccc(-c2cc(C(=O)NCc3cccnc3)c3c(c2)N(C)CCO3)cn1 | inconclusive: 15.8 µM [inhibitor, partial curve, poor fit] | – | – |
| CC(C)n1cc2cc(C(=O)NCc3ccc(N4CCOCC4)cc3)sc2c1 | inconclusive: 17.8 µM [inhibitor, single point] | – | – |
| Cc1ccc(CCNC(=O)c2ccc(Cn3ccn4nc5c(c4c3=O)CCCC5)cc2)cc1 | inconclusive: 1 µM [inhibitor, partial curve, poor fit] | – | – |
| COc1ccc(CCC(=O)NCc2ccc3c(c2)CCN3C(=O)c2cccc(C)c2)cc1 | inconclusive: 17.8 µM [inhibitor, single point] | – | – |
| CCOC(=O)C1(Cc2ccccc2F)CCCN(C(=O)C2=C(C)OCCO2)C1 (stereo not drawn) | – | inactive: -9.68% | – |
| CCOc1ccc(C(=O)Nc2ccc3nc(SCC(=O)N4CCOCC4)sc3c2)cc1 | active: 8.91 µM | – | – |
| O=C(NC[C@H]1O[C@H](Cc2cc(CN3CCOCC3)on2)CC[C@@H]1O)N1CCOCC1 | – | inactive: 12.9% [at 44.1 µM] | – |
| COC[C@H]1NC(=O)CC[C@H]1C(=O)NCCCN1CCc2ccccc2C1 | – | inactive: -12.1% | – |
| CCOc1ccccc1NC(=O)C[C@H]1NC(=O)c2ccccc2NC1=O | – | inactive: -8.35% | – |
| CCN1CCN(C(=O)c2ccc3c(c2)N(Cc2cc(C)ccc2C)C(=O)c2ccccc2S3(=O)=O)CC1 | inconclusive: 0.794 µM [inhibitor, partial curve, poor fit] | – | – |
| N#Cc1ccccc1NC(=O)C(=O)NCC(c1cccnc1)N1CCN(c2ccccc2)CC1 (stereo not drawn) | inconclusive: 17.8 µM [inhibitor, single point] | – | – |
| Cc1cccc(C(=O)Nc2cccc(C(=O)OCc3cc(=O)n4nc(C5CC5)sc4n3)c2)c1 | inconclusive: 3.55 µM [inhibitor, full curve] | – | – |
| CN(C(=O)c1ccc(Cl)s1)C1CCc2nn(CC3CC3)c(=O)n2CC1 (stereo not drawn) | – | inactive: 20.3% | – |
| Cc1nc(C2CC(NC3CCN(c4ccccc4F)CC3)C2)cc(=O)[nH]1 (stereo not drawn) | – | inactive: -7.73% | – |
| Cc1noc([C@H]2CCN(C(=O)NCc3ccc(F)cc3)C[C@H]2NC(=O)C2CC2)n1 | inconclusive: 7.94 µM [inhibitor, single point] | – | – |

| Structure (SMILES) | Potency | activity, negative = inhibition | outcome |
| --- | --- | --- | --- |
| C=CCNC(=O)NC[C@H]1C[C@@H]2CCN1C[C@@H]2c1cc(-c2ccco2)nc(C)n1 | – | inactive: -3.19% [at 44.1 µM] | – |
| COc1ccc(-n2nc(C)c([C@@H]3C=C[C@@H](NC(=O)Nc4ccccc4)C3)c2C)cc1 | active: 10 µM | – | – |
| CC(=O)c1ccc(NC(=O)CSc2ccc3nc(-c4ccccc4)cn3n2)cc1 | inconclusive: 17.8 µM [inhibitor, single point] | – | – |
| O=[S+]([O-])(c1cccnc1)c1nnn2c1nc(N1CCC(F)CC1)c1ccccc12 | inconclusive: 8.91 µM [inhibitor, single point] | – | – |
| CCCCOC(=O)c1ccc(NC(=O)/C(C#N)=C/c2ccc(-c3ccccc3)o2)cc1 | inconclusive: 11.2 µM [inhibitor, partial curve, poor fit] | – | – |
| O=C(Nc1ccc(Cl)cc1)c1nc2c(o1)CCN(Cc1cccc(F)c1F)CC2 | inconclusive: 4.47 µM [inhibitor, partial curve, poor fit] | – | – |
| Cc1cn2nc(C(=O)N3CCN(C4CCCCC4)CC3)cc2c(N(C)Cc2ccccc2)n1 | inconclusive: 3.98 µM [inhibitor, partial curve, poor fit] | – | – |
| Cc1ccc(Cl)cc1NC(=O)/C(C#N)=C\c1cn(Cc2ccc(F)cc2)c2ccccc12 | inconclusive: 17.8 µM [inhibitor, single point] | – | – |
| CC(C)CCN1CC2(CCCN(S(=O)(=O)c3cnn(C)c3)C2)CCC1=O (stereo not drawn) | – | inactive: -6.2% | – |
| COc1ccc(-c2nc(SCC(=O)N3CCC(C)CC3)n[nH]2)cc1 | – | – | inactive |
| Cc1ccc(C)c(NC(=O)Cn2c(=O)n(Cc3cccs3)c(=O)c3cccnc32)c1 | – | – | inactive |
| Cc1ccc(F)c(NC(=O)C2CN(S(=O)(=O)C3CC3)CC23CCCCC3)c1 (stereo not drawn) | – | inactive: -1.44% | – |
| CNC(=O)[C@@H]1CN(C(=O)C2(c3ccc(OC)cc3)CC2)C[C@H]1COC | – | inactive: 24.9% | – |
| Cn1cc(C(=O)NCc2ccccc2)c(=O)c2cc(S(=O)(=O)N3CCCCCC3)ccc21 | inconclusive: 11.2 µM [inhibitor, single point] | – | – |
| CC(C)CCNC(=O)c1cc(-c2ccncc2)cn1C | inconclusive: 6.31 µM [inhibitor, partial curve] | – | – |
| O=C(NCc1cccc(F)c1)N1CCC(OC2CCN(Cc3ccccc3)CC2)CC1 | inconclusive: 8.91 µM [inhibitor, single point] | – | – |
| CC1CCN(c2nc3ccc(C(=O)NCc4ccc(Cl)cc4)cc3s2)CC1 | inconclusive: 11.2 µM [inhibitor, single point] | – | – |
| COc1cc(NC(=O)c2cc3nc(-c4ccccc4)cc(-c4ccccc4)n3n2)c(OC)cc1Cl | – | inactive: 18.7% | – |
| COc1ccc(C2CC(=O)N(CC(=O)Nc3ccc(C(F)(F)F)cc3)c3ccccc3S2)cc1 (stereo not drawn) | inconclusive: 17.8 µM [inhibitor, single point] | – | – |
| CCCn1c(C)cnc1CC1CCN(C(=O)C2CC2)C1 (stereo not drawn) | – | inactive: -11.6% | – |
| COc1ccc(C(=O)Nc2ccc3nc(SCC(=O)N4CCOCC4)sc3c2)cc1 | inconclusive: 7.94 µM [inhibitor, partial curve, poor fit] | – | – |
| Cc1cccc(C)c1NC(=O)CN(C)S(=O)(=O)c1ccc2c(c1)n(C)c(=O)c(=O)n2C | – | inconclusive: -65.8% [inhibitor] [at 0.594 µM] | – |
